# Source: publication PMC12136788
# Some of the results follow.
# T1: UNK ZnF1-3 (human, UniProt Q9C0B0 31-174)
# T1 sequence: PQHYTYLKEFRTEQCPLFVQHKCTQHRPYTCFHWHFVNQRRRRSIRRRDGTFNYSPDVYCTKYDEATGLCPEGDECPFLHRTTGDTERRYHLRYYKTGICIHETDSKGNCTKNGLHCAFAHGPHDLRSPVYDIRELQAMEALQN
# B1: chr10:76910771:76910772:+_ENSG00000156671_ENST00000542569|perfect_dup|motif|central (ssRNA)
# RNA: GGGAGUUCUACAGUCCGACGAUCCAUGUCAGGCACUCGCUCAUGGACUAUAACCAUAAUGAAAGAUGUAAAUCCAAAUACGGUAAAAACAUAUAUACAACUCAGUAUAGUCUUCCAGUAUUCUGGGUCCAAUCUUCGAACAGACAACAGAGGAUUGAGCAUCA
# B2: chr3:94683992:94683993:+_ENSMUSG00000038902_ENSMUST00000107270|mus_hu|FALSE|FALSE (ssRNA)
# RNA: GGGAGUUCUACAGUCCGACGAUCGUUAAUGUUGCCAUCGGGGCCAGGCAGAACACUAGCCACCAGGAAGGAGCGCUGAACUAGCUCUGGACAGUCCCCAAUGACACCUAGCACUUCACCCAGCCAGACAAGCACCAGCUGAAGCAACAGAGGAUUGAGCAUCA
# B3: chr5:37680062:37680063:+_ENSMUSG00000029121_ENSMUST00000031004|mus_hu|mus_mus_mus_hu_False|48_98 (ssRNA)
# RNA: GGGAGUUCUACAGUCCGACGAUCUUUGGGUGUAGCUGGCACCUCGUACACAGGACCGUCAUACAUGCCCCUGGAAACCCCUUGCAACCCGAAAACCUUAUUCCUGAUUUUGACGCGCUGGUACAGGUGCUCCGGGAACGCCUUCAACAGAGGAUUGAGCAUCA
# B4: chr11:108017000:108017001:+_ENSG00000075239_ENST00000265838|hu_hu|motif|central (ssRNA)
# RNA: GGGAGUUCUACAGUCCGACGAUCAUUCACUUUUUGGGGAUCAAUCUCCAACAUUUUAAUGUUUGCUAGUACAACCAGACGGAAGGCUUCAUUUACUUCCCACAUUGCAAUAUCUUCUUUUUUCAAUCCCACAUCUUUAAGAACCAACAGAGGAUUGAGCAUCA
# B5: chr2:219460011:219460012:+_ENSG00000144580_ENST00000542068|hu_hu|FALSE|FALSE (ssRNA)
# RNA: GGGAGUUCUACAGUCCGACGAUCAGCUAAUACUGCUCAAGUACAAUCAUGAAGACAGAUGGAGCUGCUGAAAUUCACACUAAAACAAAGAAAAGGAUCAAGUGGACUGUCACCUUAAUCCCAAGCACCUCCCUUUUAGAGUUACAACAGAGGAUUGAGCAUCA
# B6: chr9:69863160:69863161:+_ENSMUSG00000033543_ENSMUST00000118198|mus_hu|FALSE|FALSE (ssRNA)
# RNA: GGGAGUUCUACAGUCCGACGAUCCUGUAUGAGCUCAUCUAGGCUCUCCUGAAGACUGUUUCCCAAAGUAGUAUUUCUGUAUAACUGAUAUGCCAUGGCUUAGGAGGAAGAAUUUGUUUUUCUUAUUCAAGCUUGCAUUGAUGUCAACAGAGGAUUGAGCAUCA
# B7: 46082053_46083164_2037_CDS_ENSG00000132780_ENST00000537798|human|control|control (ssRNA)
# RNA: GGGAGUUCUACAGUCCGACGAUCUUUCCGGGGACUCUCUUCCUCUGGUUUCCUCUUCUUUCUGACAAGGUGGGAAAUAUCAGUCACACAAUUUGAUGAGGAAGCACCGUCUGUUGGCUUUCUACUGGCAAUCAUGGAGACUGACAACAGAGGAUUGAGCAUCA
# B8: chr1:39494447:39494448:+_ENSG00000168653_ENST00000372967|hu_mus|hu_hu_hu_mus_False|48_68 (ssRNA)
# RNA: GGGAGUUCUACAGUCCGACGAUCGCACCGAGCGGCGUUCUUAUAGGGCUGUUCUGCGCUUAGGAACGUCAACCAUCGGUCCAGGCUAAGGCCGAACUUUUUCUGUAUGUCAAGGAAAGGCAUGGCUCUGCAGUGCCCUUGUCACAACAGAGGAUUGAGCAUCA
# B9: chr11:32953859:32953860:+_ENSG00000060749_ENST00000399302|hu_hu|motif|central (ssRNA)
# RNA: GGGAGUUCUACAGUCCGACGAUCAUCUCCAAUUGGGCUACAGGAUAAAGAUGACUGCCUGGUUGUUUCCUGAAAAUUAACGGCACUUGAAUUUGAUAGAUAACUAUGUAAGGAGUGCUGUGAACCAGUCAGUUGUGCCUGAAUCAACAGAGGAUUGAGCAUCA
# B10: 21755467_21758637_925_3pUTR_ENSMUSG00000047368_ENSMUST00000052556|mouse|control|control (ssRNA)
# RNA: GGGAGUUCUACAGUCCGACGAUCUCCCGUGAAUUAUUAAUACUGGAGAGGUUAUCUUAGAGAUUUUGUCAAUGUUUGGGAAUGCAUCAAAACAGUAGGUCUUCUUAGUAUCAGGGAAAGCAACUCGCAUUCCUGAGGUGAGAGCAACAGAGGAUUGAGCAUCA
# B11: chr2:32640116:32640117:+_ENSG00000115760_ENST00000421745|hu_hu|FALSE|FALSE (ssRNA)
# RNA: GGGAGUUCUACAGUCCGACGAUCUUCUGAUAUACUUUCACCCUGAGUUCUGCUUAAACCAUCCAGUGACCUGUGAGAAUUACUACUAAUGGGUGAGGUAGCAGGAGAUUUAUAUGUUAAUAAACCUCCAGCUAAUAAACAUGGCAACAGAGGAUUGAGCAUCA
# B12: chr7:56126341:56126342:+_ENSG00000146731_ENST00000540286|hu_mus|hu_hu_hu_mus_True|1_78 (ssRNA)
# RNA: GGGAGUUCUACAGUCCGACGAUCCAUGUUUCUCCUCUUGGCUCUGCGCAGAGCUACUAUGCCUUCUUUCGCAAGGGCAUCUAAGGAAAAGGGGUCAAUCCCCUUUUGAUUAAUAACGACAAAUCCUUUAUCUGAGUCGCCACACAACAGAGGAUUGAGCAUCA
# B13: 154243910_154245291_2018_CDS_ENSG00000109654_ENST00000338700|human|control|control (ssRNA)
# RNA: GGGAGUUCUACAGUCCGACGAUCAUGAUUAUGGAAAUCUGUAAUAAUAAUCUCAUUAUUGCUAUUUACAGCUGCAAAAUGGGGACCUGCAAACUGCCUGUCCCCAUUUCCUCGGCUACCAAACCUGGUGACUAUUUUCCCGUUCAACAGAGGAUUGAGCAUCA
# B14: chr1:244855233:244855234:+_ENSG00000121644_ENST00000302550|hu_mus|hu_hu_hu_mus_True|38_108 (ssRNA)
# RNA: GGGAGUUCUACAGUCCGACGAUCCAUUAAAUGAUAAGCGUUGCCCUUAUACUCUUUCCCCAGUUCUUCUACAAUUUUCUCUAUAUCAUCUUCUAGAAAGUCCGUGCUUCCUAGAACAACAGCUUCUUUAAAUUUAAAUGUUUCCAACAGAGGAUUGAGCAUCA
# Target: T1, UNK ZnF1-3
# Experiment: nsRBNS (natural sequence RNA bind-n-seq); RBNS binding buffer (assumed for nsRBNS): 25 mM Tris pH 7.5, 150 mM KCl, 3 mM MgCl2, 0.01% Triton X-100, 500 ug/ml BSA, 20 U/ml SUPERase-In, 4 C; UNK is unkempt and MSI1 is Musashi-1; names of the RNAs are library labels; protein concentration not given here; high values mean tight binding
row,Binder,binding signal
1,B1,1.05 enrichment R
2,B2,1.02 enrichment R
3,B3,0.714 enrichment R
4,B4,0.791 enrichment R
5,B5,1.6 enrichment R
6,B6,1.06 enrichment R
7,B7,0.76 enrichment R
8,B8,0.494 enrichment R
9,B9,0.788 enrichment R
10,B10,1.61 enrichment R
11,B11,1.12 enrichment R
12,B12,0.657 enrichment R
13,B13,0.455 enrichment R
14,B14,1.37 enrichment R
